According to PubChem BioAssay AID504832 (National Center for Advancing Translational Sciences (NCATS), 2011):
Hit rate of the full screen: of about 310,000 compounds, about 18,000 (5.8%) were called active. The inconclusive results got no clear call from the source; some entries with a clear call stand among them for comparison. The call rests on the fitted dose curve; in most records, active means well fitted inhibition curve with a large enough effect; inconclusive means small, poorly fitted or top-dose-only effect, or another doubt; inactive means no such curve, though single readings can be large or run the other way. No potency is given beside an inconclusive call; the fits are too rough.

Assay: Primary qHTS for delayed death inhibitors of the malarial parasite plastid, 48 hour incubation
Conditions: P. falciparum luciferase growth in erythrocytes; series mostly up to 28.7 µM; activity change, negative = inhibition: at the top concentration
Method in brief: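 In quantitative HTS format, infected erythrocytes bearing luciferase-reporter parasites were treated for a single generation at 37 C. Luminescence after adding detection reagent served as the growth measure.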
On the % scale 0 is the no-effect control and ±100 the full control effect; potency means the concentration at half of the fitted maximal effect; tags describe the fitted curve by direction and shape.

Row | Compound | activity change, negative = inhibition | Potency
1 | CC(C)Cn1c(N)c(C(=O)COC(=O)c2ccccc2Cl)c(=O)n(C)c1=O | inactive: -14.8% | –
2 | CN1CCC(OC(=O)C(Oc2ccc(Cl)cc2)Oc2ccc(Cl)cc2)CC1 | inactive: 4.84% | –
3 | CC1=CC(c2ccccc2)=Nc2ccc(C)cc2N1 | inactive: 259% | –
4 | [Hg+][c]1ccccc1 | – | active: 4.78 µM
5 | Clc1ccc(/C=N/NC2=Nc3cccc4cccc2c34)cc1 | inactive: 157% | –
6 | COc1ccc(C2CC(c3ccccc3)=NN2c2ccc(C(N)=O)cc2)cc1 (stereo not given) | – | inconclusive [inhibitor, single point]
7 | COc1cc(NC(=O)C(Cc2ccccc2)n2cccc2)cc(OC)c1 (stereo not given) | – | inconclusive [inhibitor, partial curve]
8 | Nc1ncc([N+](=O)[O-])c(N2CCCCCC2)n1 | inactive: -5.6% | –
9 | Cc1cc(C)c(C)c(S(=O)(=O)NCc2ccc(C(=O)N3CCOCC3)cc2)c1C | – | active: 8.28 µM
10 | Cc1cccc(COc2ccccc2C(=O)OCC(=O)N(C)c2c(N)n(Cc3ccccc3)c(=O)[nH]c2=O)c1 | – | inconclusive [inhibitor, partial curve]
11 | Cc1ccccc1-c1nnn(Cc2cccc(S(=O)(=O)N3CCOCC3)c2)n1 | – | inconclusive [inhibitor, single point]
12 | O=C(Nc1ccccc1F)NC1CCN(Cc2nnnn2Cc2ccc(F)cc2)CC1 | – | inconclusive [inhibitor, full curve]
13 | COc1ccc(C(C(=O)NC2CCCC2)N(CCO)C(=O)Cn2nnc(-c3ccc(C)o3)n2)cc1 (stereo not given) | – | inconclusive [inhibitor, partial curve, poor fit]
14 | COc1ccc(NC(=O)c2cnc(SC)nc2)cc1 | inactive: 31.9% | –
15 | CC(Sc1n[nH]c(-c2ccccc2)n1)C(=O)c1c(N)n(C)c(=O)n(C)c1=O (stereo not given) | inactive: -7.6% | –
16 | S=c1[nH]c(-c2ccccc2)cn1/N=C/c1ccccc1Br | – | inconclusive [inhibitor, single point]
17 | C=CCn1cc(CN2CCC(C(=O)Nc3cccc(-c4cccc(Cl)c4)c3)CC2)c(C)n1 | – | inconclusive [inhibitor, single point]
18 | Cc1ccc(S(=O)(=O)c2nc(-c3cccs3)oc2NCc2cccnc2)cc1 | – | inconclusive [inhibitor, partial curve, poor fit]
19 | CCOc1ccc(CCNC(=O)c2cccc(S(=O)(=O)N3CC(C)OC(C)C3)c2)cc1OCC (stereo not given) | – | active: 9.28 µM
20 | CCOc1ccc(N(CC(=O)N2CCN(c3ccccc3F)CC2)S(=O)(=O)c2c(C)noc2C)cc1 | – | inconclusive [inhibitor, partial curve, poor fit]
